# Reference: the supplement of paper PMC8728848
# Some of the results follow.
# Columns and labels:
# Assay in all cases: glycan array binding signal (z-score within array); higher = stronger binding
# Details in all cases: glycan notation: IUPAC condensed, linker removed
# [1] = molecular target: Neu5Ac(a2-3)Gal(b1-4)GlcNAc(b1-6)GalNAc
# Procedure, shortened: (§1)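 Negative Z-scores can be read as non-binding. The Z-score is calculated within each array and then averaged across arrays of one protein sequence at different concentrations or buffers and across linkers. Arrays, 3228 in all, were curated from the Consortium for Functional Glycomics database and kept only where the protein sequence was available.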
# [2] = molecular target: Neu5Ac(a2-3)Gal(b1-4)GlcNAc(b1-6)[Gal(b1-3)]GalNAc
# Procedure, shortened: as §1
# [3] = molecular target: Neu5Ac(a2-3)Gal(b1-4)GlcNAc(b1-6)[Neu5Ac(a2-3)Gal(b1-3)]GalNAc
# Procedure, shortened: as §1
# [4] = molecular target: Neu5Ac(a2-3)Gal(b1-4)GlcNAc6S
# Procedure, shortened: as §1
# [5] = molecular target: Neu5Ac(a2-3)Gal(b1-4)[Fuc(a1-3)]GlcNAc
# Procedure, shortened: as §1
# [6] = molecular target: Neu5Ac(a2-3)Gal(b1-4)[Fuc(a1-3)]GlcNAc(b1-2)Man
# Procedure, shortened: as §1
# [7] = molecular target: Neu5Ac(a2-3)Gal(b1-4)[Fuc(a1-3)]GlcNAc(b1-3)Gal
# Procedure, shortened: as §1
# [8] = molecular target: Neu5Ac(a2-3)Gal(b1-4)[Fuc(a1-3)]GlcNAc(b1-3)Gal(b1-4)GlcNAc
# Procedure, shortened: as §1
# [9] = molecular target: Neu5Ac(a2-3)Gal(b1-4)[Fuc(a1-3)]GlcNAc(b1-3)Gal(b1-4)[Fuc(a1-3)]GlcNAc(b1-3)Gal(b1-4)[Fuc(a1-3)]GlcNAc
# Procedure, shortened: as §1
# [10] = molecular target: Neu5Ac(a2-3)Gal(b1-4)[Fuc(a1-3)]GlcNAc(b1-3)GalNAc
# Procedure, shortened: as §1
# [11] = molecular target: Neu5Ac(a2-3)Gal(b1-4)[Fuc(a1-3)]GlcNAc(b1-6)[Gal(b1-3)]GalNAc
# Procedure, shortened: as §1
# [12] = molecular target: Neu5Ac(a2-3)Gal(b1-4)[Fuc(a1-3)]GlcNAc(b1-6)[Neu5Ac(a2-3)Gal(b1-3)]GalNAc
# Procedure, shortened: as §1
# [13] = molecular target: Neu5Ac(a2-3)Gal(b1-4)[Fuc(a1-3)]GlcNAc6S
# Procedure, shortened: as §1
# [14] = molecular target: Neu5Ac(a2-3)Gal6S(b1-4)GlcNAc
# Procedure, shortened: as §1
# [15] = molecular target: Neu5Ac(a2-3)Gal6S(b1-4)[Fuc(a1-3)]GlcNAc
# Procedure, shortened: as §1
# Neu5Ac(a2-3)GalNAc = molecular target: Neu5Ac(a2-3)GalNAc
# Procedure, shortened: as §1
# [16] = molecular target: Neu5Ac(a2-3)GalNAc(b1-4)GlcNAc
# Procedure, shortened: as §1
# [17] = molecular target: Neu5Ac(a2-3)[GalNAc(b1-4)]Gal(b1-4)Glc
# Procedure, shortened: as §1
# [18] = molecular target: Neu5Ac(a2-3)[GalNAc(b1-4)]Gal(b1-4)GlcNAc
# Procedure, shortened: as §1
# [19] = molecular target: Neu5Ac(a2-3)[GalNAc(b1-4)]Gal(b1-4)GlcNAc(b1-3)GalNAc
# Procedure, shortened: as §1
# [20] = molecular target: Neu5Ac(a2-3)[Neu5Ac(a2-6)]GalNAc
# Procedure, shortened: as §1
# Neu5Ac(a2-6)Gal = molecular target: Neu5Ac(a2-6)Gal
# Procedure, shortened: as §1
# [21] = molecular target: Neu5Ac(a2-6)Gal(b1-3)GlcNAc(b1-3)[Gal(b1-4)GlcNAc(b1-6)]Gal(b1-4)Glc
# Procedure, shortened: as §1
binder,measurement,setting,value
PX9937A-bvu-521-23-521 (Bacteroides vulgatus) (protein) LDLAPEDYYGAGNFWKEASQPKAFMLGLHAQLRSYYDMFYTLGELRGGTQRVGTSSLNTSLNYADIRSQNISEDIPGISNWNGLYSPIMQVNHFIQEVENGCTFLDDATRSRYLGQAYGMRALYYFMLYRTFGGVPLITKVDILDGKPSADKFYVERATPEATMEFIKADINKSENYFGNNTSFDAYDWSRYATLMLKAEIYMWAAKVSITGFTATGATDLQTAKTALSGIIGHFELMDNFASIFSCDNKKNTEIIFAMPFIEGEASNDGGRFLYQDAVFLGQAYGRNGKVIEKDTLNLKGTGGVFRDEYTEDFWKTFKEGDSRRDATFMEYYMKNDNGTLSEFGCVMKKRIGTINSNDNRIYISDIPVYRYADALLMMAEIENGLNNPCASYINEVRKRAYGDTFEENKYTEGSYAENELAILQERDKEFVSEGKRWFDVLRMHDASGRSLVFSANANYPGTNPILGTEEAYKMLWPVNIGTLNVNPLLTQTPGYGKK,glycan array binding signal (z-score),[1],-0.47
same,glycan array binding signal (z-score),[2],-0.546
same,glycan array binding signal (z-score),[3],-0.376
same,glycan array binding signal (z-score),[4],-0.336
same,glycan array binding signal (z-score),[5],-0.292
same,glycan array binding signal (z-score),[6],-0.364
same,glycan array binding signal (z-score),[7],0.036
same,glycan array binding signal (z-score),[8],0.101
same,glycan array binding signal (z-score),[9],-0.051
same,glycan array binding signal (z-score),[10],0.29
same,glycan array binding signal (z-score),[11],-0.51
same,glycan array binding signal (z-score),[12],0.212
same,glycan array binding signal (z-score),[13],0.059
same,glycan array binding signal (z-score),[14],-0.286
same,glycan array binding signal (z-score),[15],-0.425
same,glycan array binding signal (z-score),Neu5Ac(a2-3)GalNAc,0.578
same,glycan array binding signal (z-score),[16],0.321
same,glycan array binding signal (z-score),[17],0.944
same,glycan array binding signal (z-score),[18],-0.075
same,glycan array binding signal (z-score),[19],0.377
same,glycan array binding signal (z-score),[20],-0.584
same,glycan array binding signal (z-score),Neu5Ac(a2-6)Gal,0.054
same,glycan array binding signal (z-score),[21],-0.527
